# Laboratory results published in the supplement of paper PMC8728848.
# Some of the results follow.
# B1: AFL (Aspergillus fumigatus), Q4WW81 (protein)
# chain: STPGAQQVLFRTGIAAVNLTNHLRVYFQDVYGSIRESLYEGSWANGTEKNVIGNAKLGSPVAATSKELKHIRVYTLTEGNTLQEFAYDSGTGWYNGGLGGAKFQVAPYSRIAAVFLAGTDALQLRIYAQKPDNTIQEYMWNGDGWKEGTNLGGALPGTGIGATSFRYTDYNGPSIRIWFQTDDLKLVQRAYDPHKGWYPDLVTIFDRAPPRTAIAATSFGAGNSSIYMRIYFVNSDNTIWQVCWDHGKGYHDKGTITPVIQGSEVAIISWGSFANNGPDLRLYFQNGTYISAVSEWVWNRAHGSQLGRSALPPA
# Columns and labels:
# Assay in all cases: glycan array binding signal (z-score within array); higher = stronger binding
# Settings in all cases: glycan notation: IUPAC condensed, linker removed
# [1] = biological target: Gal3S(b1-3)[Fuc(a1-4)]GlcNAc
# Summary of the method: (§1)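 The binding signal is a Z-score computed within each array. Data were drawn from 3228 arrays in the Consortium for Functional Glycomics database, restricted to those with a known protein sequence. Scores were averaged over arrays of the same protein sequence at different concentrations or buffers, and over linkers, and negative values can be taken as non-binding.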
# Gal3S(b1-4)Glc = biological target: Gal3S(b1-4)Glc
# Summary of the method: as §1
# Gal3S(b1-4)Glc6S = biological target: Gal3S(b1-4)Glc6S
# Summary of the method: as §1
# Gal3S(b1-4)GlcNAc = biological target: Gal3S(b1-4)GlcNAc
# Summary of the method: as §1
# Gal3S(b1-4)GlcNAc6S = biological target: Gal3S(b1-4)GlcNAc6S
# Summary of the method: as §1
# [2] = biological target: Gal3S(b1-4)[Fuc(a1-3)]Glc
# Summary of the method: as §1
# [3] = biological target: Gal3S(b1-4)[Fuc(a1-3)]Glc6S
# Summary of the method: as §1
# Gal3S4S(b1-4)GlcNAc = biological target: Gal3S4S(b1-4)GlcNAc
# Summary of the method: as §1
# Gal3S6S(b1-4)GlcNAc = biological target: Gal3S6S(b1-4)GlcNAc
# Summary of the method: as §1
# Gal3S6S(b1-4)GlcNAc6S = biological target: Gal3S6S(b1-4)GlcNAc6S
# Summary of the method: as §1
# Gal4S(b1-4)GlcNAc = biological target: Gal4S(b1-4)GlcNAc
# Summary of the method: as §1
# Gal4S6S(b1-4)GlcNAc = biological target: Gal4S6S(b1-4)GlcNAc
# Summary of the method: as §1
# Gal6S(b1-3)GlcNAc = biological target: Gal6S(b1-3)GlcNAc
# Summary of the method: as §1
# Gal6S(b1-3)GlcNAc6S = biological target: Gal6S(b1-3)GlcNAc6S
# Summary of the method: as §1
# Gal6S(b1-4)Glc = biological target: Gal6S(b1-4)Glc
# Summary of the method: as §1
# Gal6S(b1-4)Glc6S = biological target: Gal6S(b1-4)Glc6S
# Summary of the method: as §1
# Gal6S(b1-4)GlcNAc = biological target: Gal6S(b1-4)GlcNAc
# Summary of the method: as §1
# Gal6S(b1-4)GlcNAc6S = biological target: Gal6S(b1-4)GlcNAc6S
# Summary of the method: as §1
# GalNAc(a1-3)Gal = biological target: GalNAc(a1-3)Gal
# Summary of the method: as §1
# GalNAc(a1-3)GalNAc = biological target: GalNAc(a1-3)GalNAc
# Summary of the method: as §1
# [4] = biological target: GalNAc(a1-3)GalNAc(a1-3)Gal(a1-4)Gal(b1-4)GlcNAc
# Summary of the method: as §1
# [5] = biological target: GalNAc(a1-3)GalNAc(b1-3)Gal(a1-4)Gal(b1-4)Glc
# Summary of the method: as §1
# [6] = biological target: GalNAc(a1-3)GalNAc(b1-3)Gal(a1-4)Gal(b1-4)GlcNAc
# Summary of the method: as §1
# GalNAc(b1-3)Gal = biological target: GalNAc(b1-3)Gal
# Summary of the method: as §1
# [7] = biological target: GalNAc(b1-3)Gal(a1-4)Gal(b1-4)GlcNAc
# Summary of the method: as §1
# [8] = biological target: GalNAc(b1-3)Gal(a1-4)Gal(b1-4)GlcNAc(b1-3)Gal(b1-4)Glc
# Summary of the method: as §1
# [9] = biological target: GalNAc(b1-3)Gal(a1-6)Gal(b1-4)Glc
# Summary of the method: as §1
# GalNAc(b1-3)GalNAc = biological target: GalNAc(b1-3)GalNAc
# Summary of the method: as §1
# GalNAc(b1-4)Gal(b1-4)Glc = biological target: GalNAc(b1-4)Gal(b1-4)Glc
# Summary of the method: as §1
# GalNAc(b1-4)GlcNAc = biological target: GalNAc(b1-4)GlcNAc
# Summary of the method: as §1
# [10] = biological target: GalNAc(b1-4)GlcNAc(b1-2)Man(a1-3)[GalNAc(b1-4)GlcNAc(b1-2)Man(a1-6)]Man(b1-4)GlcNAc(b1-4)GlcNAc
# Summary of the method: as §1
# GalNAc(b1-6)GalNAc = biological target: GalNAc(b1-6)GalNAc
# Summary of the method: as §1
# Glc(a1-4)Glc = biological target: Glc(a1-4)Glc
# Summary of the method: as §1
# [11] = biological target: Glc(a1-4)Glc(a1-4)Glc(a1-4)Glc
# Summary of the method: as §1
# Glc(a1-6)Glc(a1-6)Glc = biological target: Glc(a1-6)Glc(a1-6)Glc
# Summary of the method: as §1
# [12] = biological target: Glc(a1-6)Glc(a1-6)Glc(a1-6)Glc
# Summary of the method: as §1
# Glc(b1-4)Glc = biological target: Glc(b1-4)Glc
# Summary of the method: as §1
# Glc(b1-6)Glc = biological target: Glc(b1-6)Glc
# Summary of the method: as §1
# GlcA(b1-3)Gal = biological target: GlcA(b1-3)Gal
# Summary of the method: as §1
# GlcA(b1-3)GlcNAc = biological target: GlcA(b1-3)GlcNAc
# Summary of the method: as §1
# GlcA(b1-6)Gal = biological target: GlcA(b1-6)Gal
# Summary of the method: as §1
# [13] = biological target: GlcNAc(a1-3)Gal(b1-4)GlcNAc
# Summary of the method: as §1
# [14] = biological target: GlcNAc(a1-4)Gal(b1-3)GlcNAc
# Summary of the method: as §1
# [15] = biological target: GlcNAc(a1-4)Gal(b1-4)GalNAc
# Summary of the method: as §1
# [16] = biological target: GlcNAc(a1-4)Gal(b1-4)GlcNAc
# Summary of the method: as §1
binder,measurement,setting,value
B1,glycan array binding signal (z-score),[1],2.08
same,glycan array binding signal (z-score),Gal3S(b1-4)Glc,-0.384
same,glycan array binding signal (z-score),Gal3S(b1-4)Glc6S,-0.386
same,glycan array binding signal (z-score),Gal3S(b1-4)GlcNAc,-0.385
same,glycan array binding signal (z-score),Gal3S(b1-4)GlcNAc6S,-0.382
same,glycan array binding signal (z-score),[2],0.328
same,glycan array binding signal (z-score),[3],-0.034
same,glycan array binding signal (z-score),Gal3S4S(b1-4)GlcNAc,-0.381
same,glycan array binding signal (z-score),Gal3S6S(b1-4)GlcNAc,-0.382
same,glycan array binding signal (z-score),Gal3S6S(b1-4)GlcNAc6S,-0.381
same,glycan array binding signal (z-score),Gal4S(b1-4)GlcNAc,-0.386
same,glycan array binding signal (z-score),Gal4S6S(b1-4)GlcNAc,-0.383
same,glycan array binding signal (z-score),Gal6S(b1-3)GlcNAc,-0.391
same,glycan array binding signal (z-score),Gal6S(b1-3)GlcNAc6S,-0.385
same,glycan array binding signal (z-score),Gal6S(b1-4)Glc,-0.382
same,glycan array binding signal (z-score),Gal6S(b1-4)Glc6S,-0.387
same,glycan array binding signal (z-score),Gal6S(b1-4)GlcNAc,-0.381
same,glycan array binding signal (z-score),Gal6S(b1-4)GlcNAc6S,-0.383
same,glycan array binding signal (z-score),GalNAc(a1-3)Gal,-0.386
same,glycan array binding signal (z-score),GalNAc(a1-3)GalNAc,-0.382
same,glycan array binding signal (z-score),[4],-0.4
same,glycan array binding signal (z-score),[5],-0.381
same,glycan array binding signal (z-score),[6],-0.377
same,glycan array binding signal (z-score),GalNAc(b1-3)Gal,-0.386
same,glycan array binding signal (z-score),[7],-0.377
same,glycan array binding signal (z-score),[8],-0.388
same,glycan array binding signal (z-score),[9],-0.376
same,glycan array binding signal (z-score),GalNAc(b1-3)GalNAc,-0.38
same,glycan array binding signal (z-score),GalNAc(b1-4)Gal(b1-4)Glc,-0.362
same,glycan array binding signal (z-score),GalNAc(b1-4)GlcNAc,-0.385
same,glycan array binding signal (z-score),[10],-0.378
same,glycan array binding signal (z-score),GalNAc(b1-6)GalNAc,-0.389
same,glycan array binding signal (z-score),Glc(a1-4)Glc,-0.386
same,glycan array binding signal (z-score),[11],-0.374
same,glycan array binding signal (z-score),Glc(a1-6)Glc(a1-6)Glc,-0.382
same,glycan array binding signal (z-score),[12],-0.371
same,glycan array binding signal (z-score),Glc(b1-4)Glc,-0.376
same,glycan array binding signal (z-score),Glc(b1-6)Glc,-0.388
same,glycan array binding signal (z-score),GlcA(b1-3)Gal,-0.385
same,glycan array binding signal (z-score),GlcA(b1-3)GlcNAc,-0.361
same,glycan array binding signal (z-score),GlcA(b1-6)Gal,-0.391
same,glycan array binding signal (z-score),[13],-0.382
same,glycan array binding signal (z-score),[14],-0.377
same,glycan array binding signal (z-score),[15],-0.384
same,glycan array binding signal (z-score),[16],-0.382
